No constants are given. Whether binding was seen depends on the method and setting. Some binding calls cover weakened binding; strength is not graded here. Each block holds one substance with its values, some of them ahead of it.
Experiments:
[1] = target: GSK3beta, yeast two-hybrid fusion (UniProt P49841); test: two-hybrid; Figure 3D: GSK3beta wt or V267G mutant as bait, C-terminal Drp1 with or without K679A as prey; result as + or -
[2] = target: His-tagged Drp1 634-690 fragment (pET-32a(+)) (human) (UniProt O00429); test: far-Western, overlay or dot blot; recombinant His-tagged Drp1 full-length or fragments separated on 12% SDS gel, transferred to PVDF, incubated with HeLa cell lysate containing FLAG-tagged GSK3beta; detected with anti-FLAG; only the target purified
[3] = target: His-tagged Drp1 444-736 fragment (pET-32a(+)) (human) (UniProt O00429); test: as above
[4] = target: Drp1 truncate 2 (Drp1 502-736) K679A, yeast two-hybrid fusion (human) (UniProt O00429); test: two-hybrid; Figure 3C: Drp1 truncate 2 and 5 and truncate 2 point mutants against GSK3beta; which was bait is not given; result as + or -
[5] = target: Drp1 truncate 2 (Drp1 502-736) S693D, yeast two-hybrid fusion (human) (UniProt O00429); test: as above
[6] = target: Drp1 truncate 2 fragment (Drp1 502-736), yeast two-hybrid fusion (human) (UniProt O00429); test: as above
[7] = target: Drp1 truncate 5 (Drp1 634-690), yeast two-hybrid fusion (human) (UniProt O00429); test: as above
[8] = target: Drp1 truncate 2 fragment (Drp1 502-736), yeast two-hybrid fusion (human) (UniProt O00429); test: two-hybrid; Figure 1A: Drp1 constructs as bait (pAS2-1), GSK3beta as prey (pACT-2); beta-galactosidase (blue/white) and HIS3 induction, 5 mM 3-AT
[9] = target: Drp1 truncate 5 (Drp1 634-690), yeast two-hybrid fusion (human) (UniProt O00429); test: as above
[10] = target: Drp1 truncate 1 fragment (Drp1 1-489), yeast two-hybrid fusion (human) (UniProt O00429); test: as above

Protein sequences, listed by entry. Tags and fused reporters are not part of them. Lines headed by an entry give the natural chain unless they say otherwise; changes in a name come on top. Chains listed by the source or under a name are the forms on record and can include a tag or linker. Residues count along the entry.
UniProt P49841: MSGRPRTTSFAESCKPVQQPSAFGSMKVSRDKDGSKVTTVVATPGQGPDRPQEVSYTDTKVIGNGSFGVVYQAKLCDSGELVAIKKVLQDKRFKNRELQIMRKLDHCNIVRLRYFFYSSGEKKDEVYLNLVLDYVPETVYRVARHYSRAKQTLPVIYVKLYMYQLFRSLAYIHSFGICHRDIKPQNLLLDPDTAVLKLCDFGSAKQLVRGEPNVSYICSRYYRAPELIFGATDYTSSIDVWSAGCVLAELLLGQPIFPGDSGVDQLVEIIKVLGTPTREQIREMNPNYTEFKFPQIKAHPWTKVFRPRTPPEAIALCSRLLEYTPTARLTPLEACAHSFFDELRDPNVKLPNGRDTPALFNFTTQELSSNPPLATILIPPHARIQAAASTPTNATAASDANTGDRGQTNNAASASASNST
UniProt O00429: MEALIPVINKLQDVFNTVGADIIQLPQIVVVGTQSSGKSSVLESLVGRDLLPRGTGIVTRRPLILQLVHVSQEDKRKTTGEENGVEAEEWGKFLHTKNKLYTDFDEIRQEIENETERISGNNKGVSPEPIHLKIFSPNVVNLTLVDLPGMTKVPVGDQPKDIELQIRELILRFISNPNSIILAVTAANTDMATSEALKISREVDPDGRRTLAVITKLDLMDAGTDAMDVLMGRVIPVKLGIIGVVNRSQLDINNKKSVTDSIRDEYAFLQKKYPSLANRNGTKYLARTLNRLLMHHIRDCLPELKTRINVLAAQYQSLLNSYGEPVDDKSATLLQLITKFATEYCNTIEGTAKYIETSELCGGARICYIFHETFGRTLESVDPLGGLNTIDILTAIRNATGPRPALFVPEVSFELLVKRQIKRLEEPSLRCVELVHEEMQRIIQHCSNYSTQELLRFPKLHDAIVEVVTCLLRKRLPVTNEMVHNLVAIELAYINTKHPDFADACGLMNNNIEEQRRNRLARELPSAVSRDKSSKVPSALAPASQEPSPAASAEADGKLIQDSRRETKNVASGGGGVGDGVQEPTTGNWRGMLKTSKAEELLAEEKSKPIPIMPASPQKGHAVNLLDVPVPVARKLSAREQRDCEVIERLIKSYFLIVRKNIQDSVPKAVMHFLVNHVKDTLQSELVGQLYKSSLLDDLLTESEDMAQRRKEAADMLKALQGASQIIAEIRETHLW
Drp1 truncate 1 fragment (Drp1 1-489), yeast two-hybrid fusion: residues 1-489 of O00429
His-tagged Drp1 444-736 fragment (pET-32a(+)): residues 444-736 of O00429
Drp1 truncate 2 fragment (Drp1 502-736), yeast two-hybrid fusion: residues 502-736 of O00429
Drp1 truncate 5 (Drp1 634-690), yeast two-hybrid fusion: residues 634-690 of O00429

binding [1]: no binding
Substance: Drp1 truncate 2 (Drp1 502-736) K679A, yeast two-hybrid fusion (from UniProt O00429 502-736) (domain or fragment)

binding [2]: binds
binding [3]: binds
Substance: FLAG-tagged GSK3beta (from UniProt P49841 1-420) (enzyme)

binding [4]: no binding
binding [5]: binds
binding [6]: binds
binding [7]: binds
binding [8]: binds
binding [9]: binds
binding [10]: no binding
Substance: GSK3beta, yeast two-hybrid fusion (from UniProt P49841 1-420) (enzyme)

Reference: PMC3502545
